Measurements as given in publication PMC9127577.
These are yes or no findings as the source states them, for the method shown. In cells and extracts the contact can be indirect. Some binding calls cover weakened binding; strength is not graded here. For some assays here: Sequences can lack the tags named with a protein.

The chains behind the UniProt entries cited, without tags or fusion partners. Where a name states a change or a piece, a line headed by the entry shows the natural chain unless it says otherwise. A line that says so, or that is headed by a name, gives the form on record, which may keep a tag or linker. Residues count along the entry.
UniProt Q9Y294: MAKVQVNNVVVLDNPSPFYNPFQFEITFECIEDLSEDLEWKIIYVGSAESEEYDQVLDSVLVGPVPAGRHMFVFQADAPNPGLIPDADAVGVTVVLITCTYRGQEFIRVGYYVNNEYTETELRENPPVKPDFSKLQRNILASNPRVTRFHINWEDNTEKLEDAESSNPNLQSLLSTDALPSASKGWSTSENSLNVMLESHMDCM
SFB-tagged ASF1A N-terminal part (residues 1–154): residues 1-154 of Q9Y294
ASF1A Δ91 to 120 (Q9Y294, form named): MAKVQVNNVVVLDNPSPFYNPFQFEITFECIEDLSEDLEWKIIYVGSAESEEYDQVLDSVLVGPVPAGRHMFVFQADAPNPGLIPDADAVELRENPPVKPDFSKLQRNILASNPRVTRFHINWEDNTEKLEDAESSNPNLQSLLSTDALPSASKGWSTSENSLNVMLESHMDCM
UniProt Q9NVP2: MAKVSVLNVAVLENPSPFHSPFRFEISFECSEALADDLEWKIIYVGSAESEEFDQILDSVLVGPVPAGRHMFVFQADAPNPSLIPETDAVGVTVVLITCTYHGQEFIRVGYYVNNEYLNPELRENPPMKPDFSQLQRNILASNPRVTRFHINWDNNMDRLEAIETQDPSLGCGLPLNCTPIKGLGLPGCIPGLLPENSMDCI
UniProt P49959: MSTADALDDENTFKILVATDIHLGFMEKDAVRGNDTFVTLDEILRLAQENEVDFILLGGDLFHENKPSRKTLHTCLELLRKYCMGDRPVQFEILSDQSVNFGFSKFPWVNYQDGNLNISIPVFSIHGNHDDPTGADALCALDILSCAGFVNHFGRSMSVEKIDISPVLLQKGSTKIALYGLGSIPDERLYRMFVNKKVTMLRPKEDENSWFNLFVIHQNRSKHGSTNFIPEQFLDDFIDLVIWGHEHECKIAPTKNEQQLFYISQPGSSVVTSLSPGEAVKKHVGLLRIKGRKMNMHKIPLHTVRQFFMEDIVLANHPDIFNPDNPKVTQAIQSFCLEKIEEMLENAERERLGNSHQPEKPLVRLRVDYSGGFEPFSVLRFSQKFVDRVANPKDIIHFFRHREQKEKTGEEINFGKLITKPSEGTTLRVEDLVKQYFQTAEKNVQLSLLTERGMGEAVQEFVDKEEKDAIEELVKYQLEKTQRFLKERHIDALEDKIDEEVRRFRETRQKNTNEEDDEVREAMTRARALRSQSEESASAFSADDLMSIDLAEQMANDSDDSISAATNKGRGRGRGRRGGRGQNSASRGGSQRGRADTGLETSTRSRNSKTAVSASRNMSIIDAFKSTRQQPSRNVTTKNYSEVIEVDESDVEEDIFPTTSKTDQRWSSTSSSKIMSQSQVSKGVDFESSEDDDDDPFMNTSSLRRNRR

Columns and labels:
[1] = target: SFB-tagged endogenous RIF1 (replication timing regulatory factor 1), N-terminal knock-in (human) (UniProt Q5UIP0); experiment: pull-down; lysate of 293T RIF1 SFB N-terminal knock-in cells (NETN buffer with turbonuclease) pulled down with S protein-conjugated beads, 4 °C; Western blot
[2] = target: T1, SFB-tagged RIF1 truncation mutant, residues 967–1350 (human) (UniProt Q5UIP0); experiment: pull-down; 293T cells transfected with SFB-tagged constructs, lysed in NETN buffer with turbonuclease; pull-down with streptavidin-conjugated beads, 4 °C; Western blot of the endogenous partner (called coimmunoprecipitation in the text)
T1 sequence: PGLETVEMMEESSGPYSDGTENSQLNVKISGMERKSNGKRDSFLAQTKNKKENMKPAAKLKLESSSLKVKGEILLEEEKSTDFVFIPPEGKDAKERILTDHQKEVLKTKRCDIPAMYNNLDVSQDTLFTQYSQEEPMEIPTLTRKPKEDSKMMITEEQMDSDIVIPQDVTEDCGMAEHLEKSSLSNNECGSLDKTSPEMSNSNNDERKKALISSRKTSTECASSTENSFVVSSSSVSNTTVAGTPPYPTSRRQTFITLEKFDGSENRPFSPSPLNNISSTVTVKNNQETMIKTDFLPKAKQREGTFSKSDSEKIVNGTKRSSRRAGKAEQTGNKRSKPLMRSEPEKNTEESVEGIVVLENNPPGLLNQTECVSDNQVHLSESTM

[3] = target: T2, SFB-tagged RIF1 truncation mutant, residues 967–1690 (human) (UniProt Q5UIP0); experiment: as above
T2 sequence: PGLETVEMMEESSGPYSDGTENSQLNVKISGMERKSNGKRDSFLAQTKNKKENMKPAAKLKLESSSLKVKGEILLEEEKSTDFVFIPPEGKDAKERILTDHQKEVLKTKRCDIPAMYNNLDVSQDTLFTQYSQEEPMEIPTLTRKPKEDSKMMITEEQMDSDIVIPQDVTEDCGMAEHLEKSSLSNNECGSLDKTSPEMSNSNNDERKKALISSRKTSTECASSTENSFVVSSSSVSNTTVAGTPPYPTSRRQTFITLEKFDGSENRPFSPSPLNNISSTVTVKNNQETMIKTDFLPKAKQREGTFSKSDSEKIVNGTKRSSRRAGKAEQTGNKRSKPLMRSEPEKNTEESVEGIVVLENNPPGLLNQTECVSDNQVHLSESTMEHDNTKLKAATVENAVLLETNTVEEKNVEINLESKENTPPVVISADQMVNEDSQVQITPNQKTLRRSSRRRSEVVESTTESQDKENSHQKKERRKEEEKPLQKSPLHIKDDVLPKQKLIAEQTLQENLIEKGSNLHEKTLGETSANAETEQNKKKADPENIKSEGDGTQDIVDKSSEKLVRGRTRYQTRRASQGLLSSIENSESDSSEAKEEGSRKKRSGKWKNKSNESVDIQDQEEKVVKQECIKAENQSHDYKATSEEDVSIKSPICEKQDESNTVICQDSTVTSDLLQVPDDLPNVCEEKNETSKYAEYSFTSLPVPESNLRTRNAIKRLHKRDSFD

[4] = target: endogenous ASF1A (human (endogenous in 293T)) (UniProt Q9Y294); experiment: co-IP; 293T lysate (NETN buffer with turbonuclease) immunoprecipitated with antibodies to endogenous ASF1A or ASF1B overnight, Protein A/G agarose beads, 4 °C; Western blot
[5] = target: endogenous ASF1B (human (endogenous in 293T)) (UniProt Q9NVP2); experiment: as above
ASF1A Δ91 to 120 (human) = ASF1A Δ91 to 120 (human) (UniProt Q9Y294); experiment: pull-down; 293T cells transfected with SFB-tagged constructs, lysed in NETN buffer with turbonuclease; pull-down with streptavidin-conjugated beads, 4 °C; Western blot of the endogenous partner (called coimmunoprecipitation in the text)
[6] = target: SFB-tagged ASF1A N-terminal part (residues 1–154) (human) (UniProt Q9Y294); experiment: as above
[7] = target: SFB-tagged ASF1A V94R (histone-binding defective mutant) (human) (UniProt Q9Y294); experiment: as above
[8] = target: SFB-tagged ASF1A, full length (human) (UniProt Q9Y294); experiment: as above
[9] = target: SFB-tagged ASF1B, full length (human) (UniProt Q9NVP2); experiment: as above

Row | binding [1] | binding [2] | binding [3] | binding [4] | binding [5] | binding (ASF1A Δ91 to 120 (human)) | binding [6] | binding [7] | binding [8] | binding [9] | Substance
1 | binds | – | – | – | – | – | – | – | – | – | MRN complex (MRE11–RAD50–NBS1) (from UniProt P49959 1-708; Q92878 1-1312; O60934 1-754)
2 | binds | binds | binds | – | – | – | – | – | – | – | endogenous ASF1A (from UniProt Q9Y294 1-204)
3 | – | – | – | binds | binds weakly | no binding | binds | binds | binds | binds | endogenous RIF1 (replication timing regulatory factor 1) (from UniProt Q5UIP0-2 1-2446)
